The list shows a part of the results.
B1: PhoQ; a variant is named by its letters at X, in order, P23837 (parent)
chain: MKKLLRLFFPLSLRVRFLLATAAVVLVLSLAYGMVALIGYSVSFDKTTFRLLRGESNLFYTLAKWENNKLHVELPENIDKQSPTMTLIYDENGQLLWAQRDVPWLMKMIQPDWLKSNGFHEIEADVNDTSLLLSGDHSIQQQLQEVREDDDDAEMTHSVAVNVYPATSRMPKLTIVVVDTIPVELKSSYMVWSWFIYVLSANLLLVIPLLWVAAWWSLRPIEALAKEVRELEEHNRELLNPATTRELTSLVRNLNRLLKSERERYDKYRTTLTDLTHSLKTPLXXLQXXLRSLRSEKMSVSDAEPVMLEQISRISQQIGYYLHRASMRGGTLLSRELHPVAPLLDNLTSALNKVYQRKGVNISLDISPEISFVGEQNDFVEVMGNVLDNACKYCLEFVEISARQTDEHLYIVVEDDGPGIPLSKREVIFDRGQRVDTLRPGQGVGLAVAREITEQYEGKIVAGESMLGGARMEVIFGRQHSAPKDE

Variants of: B1
Assay: enrichment ratio after two sorts for PhoP signalling (ratio (wild type AVST 3.29)); higher = more functional
Conditions: with PhoP (E. coli)

Variant	enrichment ratio
TAHY	27.1
DYPQ	≤ 0.25
MGDV	≤ 0.25
DHNW	≤ 0.25
LVGA	≤ 0.25
MYRA	≤ 0.25
IIRV	≤ 0.25
LMYT	≤ 0.25
ENFL	≤ 0.25
LKNW	≤ 0.25
KVFM	≤ 0.25
HVPG	≤ 0.25
QPYW	≤ 0.25
KSMS	≤ 0.25
LPRH	≤ 0.25
ASDV	≤ 0.25
EHRL	≤ 0.25
QPHR	≤ 0.25
NVGH	≤ 0.25
RVEP	≤ 0.25
NYIN	≤ 0.25
KPQN	≤ 0.25
ELGS	≤ 0.25
QMVI	≤ 0.25

Variant	enrichment ratio
YDMS	≤ 0.25
LYSE	≤ 0.25
GWDF	≤ 0.25
NAYQ	≤ 0.25
KDWW	≤ 0.25
GQQM	≤ 0.25
RFAQ	≤ 0.25
FEPI	≤ 0.25
IYHM	≤ 0.25
IKSM	≤ 0.25
SMLE	8.43
TSMA	9.58
HGIL	5.72
RNMQ	≤ 0.25
IEVH	≤ 0.25
WGGF	≤ 0.25
IWHL	≤ 0.25
QFPD	≤ 0.25
RSRW	≤ 0.25
EHRY	≤ 0.25
GNVA	≤ 0.25
WNNR	0.794
RRRA	≤ 0.25
WLYE	≤ 0.25

Variant	enrichment ratio
PKGY	≤ 0.25
VMHQ	≤ 0.25
SSQT	2.32
YNWY	≤ 0.25
AESA	8.72
ENPG	≤ 0.25
LKTT	≤ 0.25
KSGF	≤ 0.25
PHHN	≤ 0.25
QHIM	≤ 0.25
HDCF	≤ 0.25
SCTQ	9.21
RAKD	≤ 0.25
MCEW	≤ 0.25
NGHW	≤ 0.25
YRQL	≤ 0.25
KFIK	≤ 0.25
SFPH	≤ 0.25
TITR	1.27
RTGF	≤ 0.25
KVKN	≤ 0.25
RQFQ	≤ 0.25
NFMM	≤ 0.25
AESR	3.86

Variant	enrichment ratio
DYWH	≤ 0.25
PDAF	≤ 0.25
WMYH	≤ 0.25
MSKI	≤ 0.25
RHFE	≤ 0.25
FHCC	≤ 0.25
IICY	≤ 0.25
TCYH	2.68
KEVV	≤ 0.25
RQGD	≤ 0.25
MVRH	≤ 0.25
FTSV	≤ 0.25
QNTH	≤ 0.25
NMPP	≤ 0.25
VMEE	≤ 0.25
TKGH	≤ 0.25
FCSL	0.351
ISEM	≤ 0.25
QRIC	≤ 0.25
HRPG	≤ 0.25
LYAG	≤ 0.25
KLSH	≤ 0.25
KFFN	≤ 0.25
AHIQ	≤ 0.25

Variant	enrichment ratio
KGWC	≤ 0.25
FTCQ	7.15
YLCY	≤ 0.25
SNTV	9.06
PEML	≤ 0.25
NDWG	≤ 0.25
WHQH	≤ 0.25
FRQT	≤ 0.25
KGHF	≤ 0.25
NTHK	≤ 0.25
WHGM	≤ 0.25
FICI	6.17
GCVD	≤ 0.25
LFLW	≤ 0.25
MNHP	≤ 0.25
DHCY	≤ 0.25
YMDP	≤ 0.25
RSAV	≤ 0.25
SYCM	≤ 0.25
KGHM	≤ 0.25
MGAN	12.6
ILQM	≤ 0.25
NQYK	≤ 0.25
LQGD	≤ 0.25

Variant	enrichment ratio
DFMA	≤ 0.25
FVVP	≤ 0.25
HKQD	≤ 0.25
DMQD	≤ 0.25
KFYV	≤ 0.25
LMED	≤ 0.25
PQHH	≤ 0.25
EMLI	≤ 0.25
FNIK	≤ 0.25
HILE	≤ 0.25
VEQG	≤ 0.25
ECCR	≤ 0.25
MPYH	≤ 0.25
YRAP	≤ 0.25
TYNI	2.3
LKFC	≤ 0.25
SFSI	≤ 0.25
NIIS	≤ 0.25
QWMF	≤ 0.25
EHAW	≤ 0.25
TYCF	≤ 0.25
YTHA	≤ 0.25
VEYD	≤ 0.25
KVWW	≤ 0.25

Variant	enrichment ratio
VNCA	≤ 0.25
LCGY	≤ 0.25
FGFQ	≤ 0.25
RYSA	≤ 0.25
SGLR	≤ 0.25
YCWG	≤ 0.25
SFMP	≤ 0.25
GACE	≤ 0.25
LTKN	≤ 0.25
RNII	≤ 0.25
KPTY	≤ 0.25
SGPQ	≤ 0.25
MHVH	≤ 0.25
FAFC	≤ 0.25
EVTS	≤ 0.25
NNDM	≤ 0.25
DMYK	≤ 0.25
RGGK	≤ 0.25
TMFQ	≤ 0.25
GWSY	≤ 0.25
MWSM	≤ 0.25
QTVD	≤ 0.25
HMKH	≤ 0.25
GKHA	≤ 0.25

Variant	enrichment ratio
TMMQ	≤ 0.25
GPER	≤ 0.25
RKCS	≤ 0.25
QETA	≤ 0.25
QRIY	≤ 0.25
YTIQ	≤ 0.25
QHIT	≤ 0.25
EFCQ	≤ 0.25
SYGF	≤ 0.25
DDLL	≤ 0.25
NLNS	≤ 0.25
HGIS	≤ 0.25
PIHE	≤ 0.25
KGMC	≤ 0.25
QFFT	≤ 0.25
AVPA	≤ 0.25
KNRV	≤ 0.25
QYQK	≤ 0.25
FVWI	≤ 0.25
KGTF	≤ 0.25
DGSY	≤ 0.25
DLTD	≤ 0.25
QGHP	≤ 0.25
ASHQ	≤ 0.25

Variant	enrichment ratio
RCKT	≤ 0.25
TGHT	8.76
HSQR	≤ 0.25
NKWH	≤ 0.25
YKSE	≤ 0.25
ESPH	≤ 0.25
AKKW	≤ 0.25
VLFN	≤ 0.25
ITMG	≤ 0.25
SLAQ	3.9
MFFG	≤ 0.25
INNV	≤ 0.25
KPAP	≤ 0.25
AKEA	≤ 0.25
DNQN	≤ 0.25
WSHN	≤ 0.25
RMIM	≤ 0.25
PAVW	≤ 0.25
FDIT	≤ 0.25
RDCS	≤ 0.25
RKMA	≤ 0.25
VYDW	≤ 0.25
MHAQ	≤ 0.25
VLYY	≤ 0.25

Variant	enrichment ratio
SSVQ	9.83
PSTG	≤ 0.25
IDVC	≤ 0.25
WKCV	≤ 0.25
RHCY	≤ 0.25
VNFL	≤ 0.25
EDEG	≤ 0.25
LEMR	≤ 0.25
NVPS	≤ 0.25
AYHE	≤ 0.25
VKFT	≤ 0.25
PNAK	≤ 0.25
WSGP	≤ 0.25
SNGD	≤ 0.25
IGFP	≤ 0.25
VQII	≤ 0.25
ESPG	≤ 0.25
SVMW	≤ 0.25
PCDL	≤ 0.25
AHQW	≤ 0.25
THEC	≤ 0.25
EACW	≤ 0.25
MNCK	≤ 0.25
ERSW	≤ 0.25

Variant	enrichment ratio
ILNC	≤ 0.25
AAGI	≤ 0.25
FKQT	≤ 0.25
IYIH	≤ 0.25
ADQI	≤ 0.25
VNFW	≤ 0.25
RVWP	≤ 0.25
LVPP	≤ 0.25
QVVK	≤ 0.25
RNQD	≤ 0.25
RTSI	≤ 0.25
MWEW	≤ 0.25
QYKY	≤ 0.25
IQRY	≤ 0.25
MHHQ	≤ 0.25
DKDV	≤ 0.25
RDTM	≤ 0.25
AQTD	≤ 0.25
VQNQ	≤ 0.25
MTLS	2.25
SSLE	12
RCQQ	≤ 0.25
YPQR	≤ 0.25
GCQW	≤ 0.25

Variant	enrichment ratio
YFGC	≤ 0.25
AHME	12.2
TVPD	≤ 0.25
SFQQ	≤ 0.25
IMDY	≤ 0.25
RKRN	≤ 0.25
GKSC	≤ 0.25
QPMD	≤ 0.25
YYIK	≤ 0.25
GNKP	≤ 0.25
WPWG	≤ 0.25
ICAD	≤ 0.25
NINP	≤ 0.25
AIAE	7.09
HWDK	≤ 0.25
PFAP	≤ 0.25
KKFI	≤ 0.25
PMVQ	≤ 0.25
VFKL	≤ 0.25
ERDY	≤ 0.25
MAFS	1.27
YLSC	0.299
VSMD	≤ 0.25
LREI	≤ 0.25

Variant	enrichment ratio
GLRK	≤ 0.25
NTDQ	≤ 0.25
LNQN	≤ 0.25
KFTN	≤ 0.25
EFRT	≤ 0.25
IQVS	≤ 0.25
HNKL	≤ 0.25
KVVY	≤ 0.25
ERPG	≤ 0.25
VEWG	18.1
ALTR	≤ 0.25
WYPP	≤ 0.25
MNVQ	≤ 0.25
CSLC	9.89
QGNE	≤ 0.25
MQRT	≤ 0.25
DCPP	≤ 0.25
TWHK	≤ 0.25

Reference: a collection of fitness landscapes (doi:10.1126/science.1257360)
